From PubChem BioAssay AID2107 (National Center for Advancing Translational Sciences (NCATS), 2009)
“And” between values parts separate entries of the source, which are not always exact repeats. Equal entries are not always repeated. The campaign covered roughly 240,000 compounds. About 20 (0.008%) were called active. The shares of active, inactive and inconclusive entries below differ from those in the screen. Calls come from the whole dose curve; as a rule, active = well fitted inhibition curve with a large enough effect; inconclusive = small, poorly fitted or top-dose-only effect, or effect the other way; inactive = flat fitted curve, though single readings scatter. Potencies beside an inconclusive call are fits to weak or partial responses and may not hold up.

Target: Alpha-galactosidase A (Homo sapiens) (UniProt P06280)
UniProt P06280, sequence (P06280 whole entry, looked up): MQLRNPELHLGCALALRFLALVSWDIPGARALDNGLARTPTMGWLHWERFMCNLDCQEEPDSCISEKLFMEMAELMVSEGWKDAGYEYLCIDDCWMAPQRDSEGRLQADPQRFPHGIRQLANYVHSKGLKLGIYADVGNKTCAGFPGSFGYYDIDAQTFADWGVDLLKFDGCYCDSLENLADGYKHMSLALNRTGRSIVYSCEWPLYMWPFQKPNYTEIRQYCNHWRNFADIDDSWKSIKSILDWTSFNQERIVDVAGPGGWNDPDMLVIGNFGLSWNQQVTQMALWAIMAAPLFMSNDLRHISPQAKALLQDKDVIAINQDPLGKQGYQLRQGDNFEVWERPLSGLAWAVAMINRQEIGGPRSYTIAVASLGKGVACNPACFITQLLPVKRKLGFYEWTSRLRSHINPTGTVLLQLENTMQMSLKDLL
Test: qHTS Assay for Inhibitors and Activators of Human alpha-Galactosidase From Spleen Homogenate;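 for activity change, negative = inhibition: 0% = enzyme with vehicle and -100% = no enzyme basal signal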
Conditions: 4MU-alpha-Gal fluorescence, 40 min; activity change, negative = inhibition: at 80 µM (top of the series)
Procedure, shortened: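 Human spleen homogenate (1 ug) was the enzyme source, with 4-methylumbelliferyl-alpha-D-galactopyranoside (1 mM final) in pH 5.0 citrate buffer with 0.01% Tween-20. Compounds were titrated; after 40 min at 37C, NaOH/glycine stop, 4-MU fluorescence read; AC50 from Hill fits.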
Potency is the fitted concentration of half-maximal effect; tags give direction and shape of the fitted curve.

Q: O=C(CSc1nnc(Cc2ccccc2)n1-c1cccc(Cl)c1)NNC(=O)Cc1ccccc1 was tested. Which Potency did it give?
A: Its Potency is inconclusive: 31.6 µM [inhibitor, partial curve, poor fit].

Q: For COc1ccc(OC)c(NC(=O)CSc2ncnc3c2cnn3-c2ccccc2Cl)c1, which “activity change, negative = inhibition” value is on record?
A: Its value is inactive: -0.19%.

Q: For Cc1ccc2c(=O)c3ccccc3n(CCCN)c2c1C, which Potency is on record?
A: The Potency was inconclusive: 11.2 µM [activator, partial curve] and inconclusive: 31.6 µM [activator, partial curve].

Q: How did the “activity change, negative = inhibition” value turn out when C(=N\N1CCN(C2c3ccccc3-c3ccccc32)CC1)/c1cccnc1 was run?
A: Its value is inactive: -7.14%.

Q: For Cn1ncc2c1ncn1nc(COc3ccc4ccccc4c3)nc21, which Potency is on record?
A: The Potency was inconclusive: 10 µM [inhibitor, partial curve, poor fit].

Q: CCN(CC)CCNC(=O)Cn1nc(Cc2ccccc2)c2ccccc2c1=O was tested. Which Potency did it give?
A: The Potency was inconclusive: 11.2 µM [activator, single point].

Q: How did the Potency turn out when O=C1NC2(C=Cc3c(ccc4ccccc34)O2)Oc2ccccc21 (centres undefined) was run?
A: The Potency was inconclusive: 31.6 µM [activator, single point].

Q: Cc1noc2c1C(c1ccc(N(C)C)cc1)C1=C(CC(C)(C)CC1=O)N2 (centres undefined) was tested. Which “activity change, negative = inhibition” value did it give?
A: Its value is inactive: -2.91%.

Q: For COc1ccc(CCNC(=O)C2CCC(CNS(=O)(=O)c3ccc(F)cc3)CC2)cc1OC (centres undefined), which “activity change, negative = inhibition” value is on record?
A: The value was inactive: 9.42%.

Q: How did the Potency turn out when COCCn1c(=O)[nH]c2cc(C(=O)NCc3ccccc3)ccc2c1=O was run?
A: The Potency was inconclusive: 39.8 µM [activator, single point].

Q: Which “activity change, negative = inhibition” value does the source give for COc1ccc(N(Cc2cc(=O)[nH]c3ccccc23)C(=O)c2ccco2)cc1 here?
A: Its value is inactive: -13.3%.

Q: Which Potency does the source give for CCCNC(=O)c1noc2c1CCc1ccccc1-2 here?
A: The Potency was inconclusive: 44.7 µM [activator, single point].

Q: With Cc1cc(C(=O)OCC(=O)N2c3ccccc3NC(=O)C2(C)C)c(C)n1-c1ccccc1 as the compound, how does the “activity change, negative = inhibition” value read?
A: The value was inactive: 13.9%.

Q: For Cc1[nH]n(C(C)(C)C)c(=O)c1Sc1ccccc1, which “activity change, negative = inhibition” value is on record?
A: The value was inactive: 4.45%.

Q: With O=C(CSc1nc2ccccc2s1)NC(=O)NCc1ccco1 as the compound, how does the Potency read?
A: Its Potency is inconclusive: 50.1 µM [inhibitor, single point].

Q: With Cc1ccc2sc(-c3ccc(NC(=O)/C=C\C(=O)O)cc3)nc2c1 as the compound, how does the Potency read?
A: Its Potency is inconclusive: 31.6 µM [activator, single point].

Q: With O=C1c2ccccc2C(O)(Cc2ccccc2)N1C1CCCCC1 (centres undefined) as the compound, how does the “activity change, negative = inhibition” value read?
A: The value was inactive: -15.5%.

Q: For CCOCCCNC(=O)c1c(N)n(-c2ccc(S(N)(=O)=O)cc2)c2nc3ccccc3nc12, which Potency is on record?
A: The Potency was inconclusive: 31.6 µM [activator, single point].

Q: With C=CCOC(=O)N[C@H](/C(C(=O)OC)=C(\C)NCc1ccccc1)c1ccc2c(c1)OCO2 as the compound, how does the “activity change, negative = inhibition” value read?
A: Its value is inactive: 17.9%.

Q: Which Potency does the source give for CCC(C)n1c(-c2ccco2)nc2nc3ccccc3nc21 (centres undefined) here?
A: Its Potency is inconclusive: 35.5 µM [activator, partial curve].

Q: For Cc1cccn2c(=O)c3cc(C(N)=S)c(=N)n(CCCN4CCOCC4)c3nc12, which Potency is on record?
A: The Potency was inconclusive: 39.8 µM [activator, partial curve].

Q: Cc1ccccc1-n1c(=O)c(C#N)cc2c(=O)n3ccccc3nc21 was tested. Which Potency did it give?
A: The Potency was inconclusive: 4.47 µM [activator, full curve].

Q: For c1coc(-c2nc3nc4ccccc4nc3n2CC2CCCO2)c1 (centres undefined), which Potency is on record?
A: Its Potency is inconclusive: 7.08 µM [activator, full curve].

Q: Which Potency does the source give for Clc1cc2nc3ccccn3c2cc1Cl here?
A: Its Potency is inconclusive: 2.82 µM [activator, full curve, poor fit].

Q: Cc1c(Cl)c(C(=O)NC2CCCC2)nn1C was tested. Which “activity change, negative = inhibition” value did it give?
A: Its value is inactive: 1.37%.

Q: How did the “activity change, negative = inhibition” value turn out when CCCCN(C(=O)c1ccc2c(c1)OCO2)c1ccccc1 was run?
A: Its value is inactive: 1.35%.

Q: With Cc1cc(=O)oc2cc(NC(=O)CCC(=O)O)ccc12 as the compound, how does the Potency read?
A: The Potency was inconclusive: 50.1 µM [activator, single point].

Q: Cc1cc(N2CCN(c3ccccc3F)CC2)nc2cc(O)ccc12 was tested. Which Potency did it give?
A: Its Potency is inconclusive: 28.2 µM [activator, single point].

Q: With FCCCOc1ccc(-c2ccnc3ncnn23)cc1 as the compound, how does the Potency read?
A: Its Potency is inconclusive: 44.7 µM [activator, partial curve].

Q: With CC(NC(=O)OC(C)(C)C)C(=O)Oc1ccc2ccc(=O)oc2c1 (centres undefined) as the compound, how does the Potency read?
A: Its Potency is inconclusive: 31.6 µM [activator, partial curve].

Q: With COc1ccc(-n2c(=O)c(-c3cccs3)nc3cnc(OC)nc32)cc1 as the compound, how does the Potency read?
A: The Potency was inconclusive: 39.8 µM [activator, single point].

Q: How did the Potency turn out when Cc1oc2c(CN3CCCC3)c(O)ccc2c(=O)c1-c1ccccc1 was run?
A: The Potency was inconclusive: 31.6 µM [activator, single point].

Q: With COc1ccc(CCNC(=O)c2cc(-c3ccco3)on2)cc1OC as the compound, how does the “activity change, negative = inhibition” value read?
A: The value was inactive: -11.5%.

Q: Which Potency does the source give for Cn1c(C(=O)NCC2CCCO2)cc2c(=O)n3ccccc3nc21 (centres undefined) here?
A: The Potency was inconclusive: 3.98 µM [activator, single point].

Q: CC1(C)CC(=O)c2cc(C(=O)NC3CCSC3=O)c(=O)n(-c3ccccc3)c2C1 (centres undefined) was tested. Which Potency did it give?
A: Its Potency is inconclusive: 14.1 µM [inhibitor, partial curve].

Q: COc1ccc(-c2nc3cnc(N4CCNCC4)nc3n(C)c2=O)cc1 was tested. Which Potency did it give?
A: The Potency was inconclusive: 28.2 µM [activator, partial curve].

Q: How did the Potency turn out when CCNc1ncc2nc(C)c(=O)n(CCC#N)c2n1 was run?
A: Its Potency is inconclusive: 35.5 µM [activator, partial curve].

Q: With CC(=O)Nc1ccc(C2=NN(c3ccccc3)C(c3cccs3)C2)cc1 (centres undefined) as the compound, how does the Potency read?
A: Its Potency is inconclusive: 31.6 µM [activator, partial curve].

Q: Which Potency does the source give for O=C(CCl)N(Cc1ccccc1)c1ccccc1 here?
A: Its Potency is inconclusive: 35.5 µM [inhibitor, single point].

Q: With O=C(O)c1ccccc1Nc1ccc(CCc2ccc(Cl)c(Cl)c2)cc1 as the compound, how does the “activity change, negative = inhibition” value read?
A: Its value is inactive: -7.51%.

Q: How did the Potency turn out when CNC(=S)/N=C(\Nc1ccc(C)cc1)c1ccccc1 was run?
A: Its Potency is inconclusive: 3.16 µM [inhibitor, partial curve].

Q: For Cc1ccc(S(=O)(=O)NC(=O)NN2CCCCCC2)cc1, which Potency is on record?
A: Its Potency is inconclusive: 5.62 µM [inhibitor, full curve].

Q: With N=c1c(C(=O)NC2CCCC2)cc2c(=O)n3ccccc3nc2n1CCN1CCOCC1 as the compound, how does the Potency read?
A: Its Potency is inconclusive: 3.55 µM [activator, full curve].

Q: Which Potency does the source give for O=C(CCn1cnc2ccccc21)N/N=C/c1ccccc1O here?
A: Its Potency is inconclusive: 39.8 µM [activator, single point].

Q: O=C1CC(N(O)c2ccccc2)C(=O)N1c1ccc(Cl)c(Cl)c1 (centres undefined) was tested. Which “activity change, negative = inhibition” value did it give?
A: The value was inactive: 1.94%.

Q: With O=C(/C=C/c1cccs1)Nc1cccc(NC(=O)/C=C/c2cccs2)n1 as the compound, how does the Potency read?
A: Its Potency is inconclusive: 22.4 µM [inhibitor, single point].

Q: With CCCn1c(=O)[nH]c2nc(-c3ccc(S(=O)(=O)O)cc3)[nH]c2c1=O as the compound, how does the Potency read?
A: Its Potency is inconclusive: 28.2 µM [activator, partial curve].

Q: With CS(=O)(=O)N1CCN(C(=O)c2cc(-c3cccs3)nc3ccccc23)CC1 as the compound, how does the Potency read?
A: The Potency was inconclusive: 44.7 µM [activator, single point].

Q: Which Potency does the source give for O=C(COC(=O)c1ccc([N+](=O)[O-])o1)Nc1nc2ccccc2s1 here?
A: Its Potency is inconclusive: 50.1 µM [inhibitor, single point].

Q: With COc1cccc(-n2nnc3c(=O)n(Cc4ccc(C)cc4)cnc32)c1 as the compound, how does the “activity change, negative = inhibition” value read?
A: Its value is inactive: 13.4%.

Q: With COC(=O)CSc1nc2sc3c(c2c(=O)n1-c1ccccc1)CCN(C)C3 as the compound, how does the Potency read?
A: The Potency was inconclusive: 44.7 µM [activator, single point].

Q: N#C/C(=C\c1c(N2CCOCC2)nc2ccccn2c1=O)C(=O)NC1CCS(=O)(=O)C1 (centres undefined) was tested. Which Potency did it give?
A: The Potency was inconclusive: 7.08 µM [activator, partial curve].

Q: With O=C(CCS(=O)(=O)c1cccc2nsnc12)N1CCN(C(=O)c2ccco2)CC1 as the compound, how does the “activity change, negative = inhibition” value read?
A: The value was inactive: 17.7%.

Q: Which Potency does the source give for COc1ccc2c(c1)NC(c1ccc(N(C)C)cc1)c1cccn1-2 (centres undefined) here?
A: The Potency was inconclusive: 28.2 µM [activator, partial curve].

Q: Which “activity change, negative = inhibition” value does the source give for O=S(=O)(Nc1ccc(S(=O)(=O)N2CCCCC2)cc1)c1cccs1 here?
A: Its value is inactive: 3.04%.

Q: With Cc1ccc(/C=N/NC(=O)c2csc(C)c2)o1 as the compound, how does the “activity change, negative = inhibition” value read?
A: The value was inactive: -2.21%.

Q: With Cc1cccn2c(=O)c3cc(C(=O)NCc4cccnc4)c(=N)n(C(C)C)c3nc12 as the compound, how does the Potency read?
A: The Potency was inconclusive: 28.2 µM [activator, partial curve].

Q: How did the Potency turn out when N#Cc1c(-c2cccs2)cc(-c2cccnc2)nc1N was run?
A: Its Potency is inconclusive: 20 µM [activator, partial curve].

Q: How did the “activity change, negative = inhibition” value turn out when Cc1ccsc1/C=N/n1c(-c2ccccn2)n[nH]c1=S was run?
A: Its value is inactive: 12.2%.

Q: With CC(C)N1CCN(Cc2cccc(-c3ccco3)c2)CC1CCO (centres undefined) as the compound, how does the Potency read?
A: The Potency was inconclusive: 28.2 µM [activator, partial curve].

Q: With CC1(C)CC(=O)C2=C(C1)N(CCN1CCOCC1)C1=C(C(=O)CC(C)(C)C1)C2c1cccc(Cl)c1 as the compound, how does the Potency read?
A: Its Potency is inconclusive: 39.8 µM [activator, partial curve].

Q: Which “activity change, negative = inhibition” value does the source give for Cc1nc2nc(CCc3ccccc3)nn2c(C)c1Cl here?
A: The value was inactive: 4.62%.

Q: With S=C1Cc2ccccc2N1 as the compound, how does the “activity change, negative = inhibition” value read?
A: The value was inactive: 5.71%.

Q: How did the Potency turn out when CN(Cc1cnc2nc(N)nc(N)c2n1)c1ccc(C(=O)N[C@@H](CCC(=O)O)C(=O)O)cc1 was run?
A: Its Potency is inconclusive: 14.1 µM [activator, partial curve] and inconclusive: 25.1 µM [activator, partial curve].

Q: Cc1cc(=O)oc2c(CN3CCCCC3)c(O)c(Cl)cc12 was tested. Which Potency did it give?
A: The Potency was inconclusive: 35.5 µM [activator, partial curve].

Q: With CC(C)(C)C(=O)[C@@H]1[C@@H]2C(=O)N(C3CCCCC3)C(=O)[C@@H]2[C@H]2c3ccccc3C=CN12 as the compound, how does the “activity change, negative = inhibition” value read?
A: The value was inactive: -2.21%.

Q: How did the Potency turn out when COc1ccccc1N1CCN(C(c2cccs2)C(C)NC(=O)c2cccs2)CC1 (centres undefined) was run?
A: Its Potency is inconclusive: 15.8 µM [activator, partial curve, poor fit].

Q: With CC1CCCCN1S(=O)(=O)c1ccc(NC(=O)c2cccc(-n3cnnn3)c2)cc1 (centres undefined) as the compound, how does the “activity change, negative = inhibition” value read?
A: The value was inactive: 2.17%.

Q: Which Potency does the source give for CCCn1c(=O)[nH]c(=O)c2c(C(=O)OCC)cc(-c3cccs3)nc21 here?
A: The Potency was inconclusive: 22.4 µM [activator, partial curve].
